The source of these data is the CheMixHub viscosity set.

± gives the uncertainty stated by the source. A number of entries come with more than one value. This list holds those alone. The source may hold further records. The records of an entry repeat one measurement (runs, samples, wells, individuals or studies). What stands in brackets tells the records apart. The letters are not those of the source and start again with each entry.

Broadly, the viscosity is the internal friction of a fluid under shear. A high value points to a thick fluid.

Consider `CCOCCO`, for which the viscosity reads like this: (298.15 K, 101.33 kPa) 1.78 ± 0.07 mPa·s [study A] and 1.175 ± 0.012 mPa·s [study B] and 1.838 ± 0.013 mPa·s [study C] and 1.784 ± 0.042 mPa·s [study D] and 1.784 ± 0.021 mPa·s [study E] and 2.054 ± 0.013 mPa·s [study F]; (303.15 K, 101 kPa) 1.572 ± 0.064 mPa·s [study A] and 1.845 ± 0.034 mPa·s [study B] and 1.572 ± 0.16 mPa·s [study C] and 1.845 ± 0.47 mPa·s [study D]; (303.15 K, 101.33 kPa) 1.64 ± 0.07 mPa·s [study A] and 1.629 ± 0.026 mPa·s [study B] and 1.644 ± 0.012 mPa·s [study C] and 1.587 ± 0.037 mPa·s [study D] and 1.643 ± 0.042 mPa·s [study E]; (308.15 K, 101.33 kPa) 1.46 ± 0.06 mPa·s [study A] and 1.37 ± 0.066 mPa·s [study B] and 1.471 ± 0.011 mPa·s [study C] and 1.427 ± 0.034 mPa·s [study D]; (313.15 K, 101.33 kPa) 1.34 ± 0.05 mPa·s [study A] and 1.333 ± 0.01 mPa·s [study B] and 1.281 ± 0.031 mPa·s [study C] and 1.293 ± 0.034 mPa·s [study D].
For the compound `CC(C)CCO`, the viscosity runs as follows: (293.15 K, 101 kPa) 4.26 ± 0.09 mPa·s [study A] and 4.376 ± 0.12 mPa·s [study B] and 4.366 ± 0.043 mPa·s [study C] and 4.385 ± 0.05 mPa·s [study D]; (298.15 K, 101 kPa) 3.756 ± 0.066 mPa·s [study A] and 3.74 ± 0.08 mPa·s [study B] and 3.748 ± 0.034 mPa·s [study C] and 3.48 ± 0.04 mPa·s [study D] and 3.79 ± 0.044 mPa·s [study E] and 3.724 ± 0.058 mPa·s [study F]; (303.15 K, 101 kPa) 3.25 ± 0.07 mPa·s [study A] and 3.267 ± 0.056 mPa·s [study B] and 3.296 ± 0.038 mPa·s [study C] and 3.227 ± 0.051 mPa·s [study D]; (303.15 K, 101.33 kPa) 3.399 ± 0.034 mPa·s [study A] and 3.033 ± 0.037 mPa·s [study B] and 2.96 ± 0.019 mPa·s [study C] and 3.191 ± 0.038 mPa·s [study D]; (313.15 K, 101 kPa) 2.35 ± 0.05 mPa·s [study A] and 2.376 ± 0.063 mPa·s [study B] and 2.429 ± 0.044 mPa·s [study C] and 2.392 ± 0.026 mPa·s [study D] and 2.529 ± 0.029 mPa·s [study E].
